The chains are these.
B1: GPR68, Q15743 (parent)
chain: MGNITADNSSMSCTIDHTIHQTLAPVVYVTVLVVGFPANCLSLYFGYLQIKARNELGVYLCNLTVADLFYICSLPFWLQYVLQHDNWSHGDLSCQVCGILLYENIYISVGFLCCISVDRYLAVAHPFRFHQFRTLKAAVGVSVVIWAKELLTSIYFLMHEEVIEDENQHRVCFEHYPIQAWQRAINYYRFLVGFLFPICLLLASYQGILRAVRRSHGTQKSRKDQIQRLVLSTVVIFLACFLPYHVLLLVRSVWEASCDFAKGVFNAYHFSLLLTSFNCVADPVLYCFVSETTHRDLARLRGACLAFLTCSRTGRAREAYPLGAPEASGKSGAQGEEPELLTKLHPAFQTPNSPGSGGFPTGRLA

Data set [1] covers variants of B1. Put plainly: cAMP reporter score (Enrich2 score, wild type = 0); higher = more signal; HEK293T, FACS bins.
Data set [2] covers variants of B1. Put plainly: surface expression score (Enrich2 score, wild type = 0); higher = more signal; HEK293T, FACS bins.

The least precise scores are not listed. Not listed are two conditions whose scores span a narrow range. In variant names, del marks residues removed and ins residues inserted between the two positions. For some assays here: The concentration of ogerin is not given here.

As to Y286V, the cAMP reporter score is -1.49 in data set [1] (pH 5.5); -1.32 in data set [1] (pH 6); -1.56 in data set [1] (pH 6, modulator: ogerin); -1.28 in data set [1] (pH 6.5, modulator: ogerin). In data set [2], the surface expression score came out at 0.909.
The like results for Y286L were, in that order, -0.592, -1.92, -1.81, -1.45 and -0.002.
As to Y286R, the cAMP reporter score was -1.65 in data set [1] (pH 5.5); -1.04 in data set [1] (pH 6); -1.69 in data set [1] (pH 6, modulator: ogerin); -1.29 in data set [1] (pH 6.5, modulator: ogerin). In addition, the surface expression score in data set [2] was -2.87.
The like results for Y286Q were, in that order, -1.64, -1.19, -1.38, -0.828 and -1.64.
The like results for Y286T were, in that order, -0.882, -1.48, -1.71, -1.06 and -0.708.
For Y286M the same measures were -0.773, -0.777, -0.935, -1.74 and 0.462.
As for Y286S, the cAMP reporter score is -0.889 in data set [1] (pH 5.5); -1.63 in data set [1] (pH 6, modulator: ogerin); -0.742 in data set [1] (pH 6.5, modulator: ogerin). For the same variant, the surface expression score in data set [2] was -0.117.
The like results for A298del were, in that order, -0.652, -0.492, -0.481 and -0.901.
With S290_E291insG, the cAMP reporter score is -0.6 in data set [1] (pH 5.5); -1.53 in data set [1] (pH 6); -1.53 in data set [1] (pH 6, modulator: ogerin); -1.6 in data set [1] (pH 6.5, modulator: ogerin). Moreover, the surface expression score in data set [2] stood at 0.537.
For R299F, the cAMP reporter score in data set [1] (pH 5.5) is -0.946; in data set [1] (pH 6), -1.43; in data set [1] (pH 6, modulator: ogerin) it was -1.08; in data set [1] (pH 6.5, modulator: ogerin) it was -1.33. Besides, the surface expression score in data set [2] is -1.75.
The like results for R299L were, in that order, -0.487, 0.556, -1.05, -0.138 and -0.162.
With R299K, the cAMP reporter score in data set [1] (pH 5.5) is 0.303; in data set [1] (pH 6) it was 0.724; in data set [1] (pH 6, modulator: ogerin), 0.48; in data set [1] (pH 6.5, modulator: ogerin), -0.124. The surface expression score in data set [2] turned out to be 0.265.
On to R299Q, for which the cAMP reporter score in data set [1] (pH 5.5) was 0.56; in data set [1] (pH 6), -0.079; in data set [1] (pH 6, modulator: ogerin) it was 0.493; in data set [1] (pH 6.5, modulator: ogerin), 0.068. Moreover, the surface expression score in data set [2] came to 0.752.
For the variant R299T, the cAMP reporter score in data set [1] (pH 5.5) is -0.881; in data set [1] (pH 6), 0.373; in data set [1] (pH 6.5, modulator: ogerin), -0.594. Besides, the surface expression score in data set [2] came to 0.562.
Turning to R299C, the cAMP reporter score in data set [1] (pH 5.5) was 0.368; in data set [1] (pH 6) it was -0.372; in data set [1] (pH 6, modulator: ogerin), -0.25; in data set [1] (pH 6.5, modulator: ogerin), -0.643. For the same variant, in data set [2], the surface expression score was -0.412.
Consider R299G, for which the cAMP reporter score in data set [1] (pH 5.5) was 2.43; in data set [1] (pH 6, modulator: ogerin), -1.12. Further, the surface expression score in data set [2] was determined as 1.7.
In the case of R299V, the cAMP reporter score in data set [1] (pH 5.5) is -0.193; in data set [1] (pH 6), -1.09; in data set [1] (pH 6, modulator: ogerin), -0.81; in data set [1] (pH 6.5, modulator: ogerin), -0.676. The surface expression score in data set [2] is -0.96.
As to R299A, the cAMP reporter score is 0.39 in data set [1] (pH 5.5); -0.624 in data set [1] (pH 6); -0.121 in data set [1] (pH 6, modulator: ogerin); -0.515 in data set [1] (pH 6.5, modulator: ogerin). Also, in data set [2], the surface expression score is 0.44.
For R299Y the same measures were 1.41, 0.202, 1.19, 0.106 and -0.539.
In the case of R299N, the cAMP reporter score in data set [1] (pH 5.5) turned out to be 1.12; in data set [1] (pH 6) it was 1.03; in data set [1] (pH 6, modulator: ogerin) it was 1.35. Moreover, the surface expression score in data set [2] came to 1.03.
For the variant R299S, the cAMP reporter score in data set [1] (pH 5.5) was 1.11; in data set [1] (pH 6) it was -0.199; in data set [1] (pH 6, modulator: ogerin), 0.993; in data set [1] (pH 6.5, modulator: ogerin), -0.817. In addition, the surface expression score in data set [2] turned out to be 0.774.
For R299P the same measures were 0.756, -0.551, 0.217, -0.759 and 0.005.
For R299M the same measures were 0.527, -0.493, -0.101, -0.791 and -0.972.
As to R299I, the cAMP reporter score is 0.282 in data set [1] (pH 5.5); 0.178 in data set [1] (pH 6); -0.379 in data set [1] (pH 6, modulator: ogerin); -0.457 in data set [1] (pH 6.5, modulator: ogerin). The surface expression score in data set [2] was -1.09.
The like results for R299W were, in that order, -0.392, -1.62, -0.399, -1.29 and -0.353.
For R299D the same measures were 0.353, -0.458, 0.258, -0.485 and 0.547.
For R299H the same measures were 1.73, 0.229, 0.318, -0.236 and 1.21.
R299E: the cAMP reporter score was 0.766 in data set [1] (pH 5.5); -0.755 in data set [1] (pH 6); 0.499 in data set [1] (pH 6, modulator: ogerin); -0.291 in data set [1] (pH 6.5, modulator: ogerin). Moreover, the surface expression score in data set [2] was 0.691.
The like results for L300_R301insG were, in that order, -0.132, -0.95, -0.479, -0.792 and -0.388.
The like results for R301_G302insGS were, in that order, 0.335, -0.163, 0.732, -0.876 and 1.15.
For E291_T292insG the same measures were -1.96, -1.18, -0.59, -1.92 and 0.496.

The values above are taken from the GPR68 mutational scans of Howard et al. (2025).
